# Laboratory results from PubChem BioAssay AID686978 (National Center for Advancing Translational Sciences (NCATS), 2013).
# The campaign covered roughly 420,000 compounds. About 64,000 (15%) were called active. The inconclusive results got no clear call from the source; some entries with a clear call stand among them for comparison. Calls come from the whole dose curve; as a rule, active = well fitted inhibition curve with a large enough effect; inconclusive = small, poorly fitted or top-dose-only effect; inactive = flat fitted curve, though single readings scatter. No potency is given beside an inconclusive call; the fits are too rough.
# Experiment: qHTS for Inhibitors of human tyrosyl-DNA phosphodiesterase 1 (TDP1): qHTS in cells in absence of CPT; note: nearly all actives have a fitted effect of over 55% in size
# Conditions: DT40 Tdp1-/- hTDP1 cells, no CPT, ATP luminescence, 48 h; activity change, negative = growth inhibition: at 46.2 µM (top of the series) unless noted
# In short: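 Seeded 400 DT40-hTDP1 cells/well (vehicle DMSO, no 20 nM CPT); pinned compounds; ≥48 hr at 37 °C; CellTiter-Glo luminescence as viability measure.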
# % is set by controls: 0 for no effect and ±100 for the full control effect; potency is the fitted concentration of half-maximal effect; tags give direction and shape of the fitted curve.
SMILES,Potency,"activity change, negative = growth inhibition"
COC(=O)c1sc(NC(=O)CCCn2nc([N+](=O)[O-])cc2C)c(C(=O)OC)c1C,"inconclusive [inhibitor, single point]",
CCn1c(COc2cccc(C)c2)nnc1SCC(=O)Nc1cccc(C(=O)OC)c1,"inconclusive [inhibitor, full curve]",
O=C1C2CCCCN2C(=O)N1CCCCN1CCN(c2ccc([N+](=O)[O-])cc2)CC1 (stereo unspecified),active: 14.6 µM,
Cc1cccc(N2C(=O)CCC2=O)c1,inactive,
Cc1ccnc(OC(C(=O)O)C(OCc2ccccc2)(c2ccccc2)c2ccc(C(F)(F)F)cc2)n1 (stereo unspecified),"inconclusive [inhibitor, single point]",
Cc1ccccc1CN1CC2=C(CCN(Cc3ccccc3)C2=O)N2CCN=C12,active: 1.3 µM,
Cn1c(=O)[nH]c(=O)c2c1nc(NC1CCCC1)n2Cc1ccccc1,"inconclusive [inhibitor, single point]",
CCC1(C2CCN(Cc3ccc(C)s3)CC2)NC(=O)N(CC2COc3ccccc3O2)C1=O (stereo unspecified),active: 20.6 µM,
CNC(=O)c1ccccc1Nc1ccc(SC(F)F)cc1,"inconclusive [inhibitor, partial curve, poor fit]",
O=C(NCc1ccccc1Cl)C1CCN(S(=O)(=O)c2cccc3nonc23)CC1,,inconclusive: -2.25% [inhibitor]
Cc1ccc(NC(=O)c2oc3ccccc3c2C)nc1,inactive,
CCC(CC)C(=O)NN(C(=O)c1ccncc1)C1CC(=O)N(c2ccccc2)C1=O (stereo unspecified),inactive,
O=C(NN1C(=O)C2C3c4ccccc4C(c4ccccc43)C2C1=O)c1ccc(Cl)cc1 (stereo unspecified),inactive,
O=C(Nc1ccccc1C(=O)O)c1cccc(NC(=O)c2ccccc2Cl)c1,"inconclusive [inhibitor, single point]",
Cc1noc(C)c1CSCC(=O)Nc1ccc(OC(F)F)c(Cl)c1,"inconclusive [inhibitor, single point]",
Cc1ccc(-n2c(SCC(=O)Nc3ccc4cn[nH]c4c3)nnc2-c2ccco2)cc1,"inconclusive [inhibitor, single point]",
CC(NC(=O)CCC(=O)N1CCN(S(=O)(=O)c2ccc(Cl)cc2)CC1)c1ccccc1 (stereo unspecified),"inconclusive [inhibitor, partial curve]",
CC(=O)n1nc(-c2cccnc2)nc1NCc1ccc(F)cc1,"inconclusive [inhibitor, single point]",
Clc1ccccc1Cn1nc(-c2ccccc2)nc1-c1ccccc1,"inconclusive [inhibitor, single point]",
COc1ccc(NC(=O)CSc2nc(O)cc(=O)[nH]2)c(OC)c1,"inconclusive [inhibitor, partial curve]",
O=C(NNc1nc2cc3c(cc2s1)OCCO3)c1ccc(F)cc1,"inconclusive [inhibitor, single point]",
COc1cccc(N2[C@@H](CC(=O)O)c3ccc(/C=C/C(=O)O)cc3S2(=O)=O)c1,inactive,
O=C(c1ccc(Cl)cc1)N1CCC(c2nc3ccccc3o2)CC1,active: 14.6 µM,

SMILES,Potency,"activity change, negative = growth inhibition"
Cc1ccc2c(c1)nnn2C1CCN(S(=O)(=O)c2ccc(C(=O)NC3CCCC3)cc2)CC1,,inconclusive: -35.8% [inhibitor]
COC(=O)c1cscc1S(=O)(=O)Cc1ccccc1,"inconclusive [inhibitor, single point]",
CN(CC(=O)Nc1ccc(F)cc1)C(=O)c1cc(-c2cccs2)nn1-c1ccccc1,active: 13 µM,
Cc1ccc(S(=O)(=O)NC2(C(=O)O)CCCC2)cc1,inactive,
O=C(Nc1nnc([C@@H]2C[C@H](O)[C@@H](CO)O2)s1)Nc1ccccc1F,inactive,
O=S(=O)(c1ccc(Br)cc1)N1CCCN(Cc2cccc(F)c2)CC1,"inconclusive [inhibitor, single point]",
CC1CC(C)CN(C(=O)c2nn(C)c3c2CS(=O)(=O)c2ccccc2-3)C1 (stereo unspecified),inactive,
CCN(c1ccc(OCC(=O)OCC(=O)c2c(N)n(C)c(=O)n(C)c2=O)cc1)S(=O)(=O)c1ccccc1,,inconclusive: -15.6% [inhibitor]
CC1CN(C2=NC(=O)/C(=C3/C(=O)N(Cc4ccc(F)cc4)c4ccccc43)S2)CC(C)O1 (stereo unspecified),"inconclusive [inhibitor, single point]",
COC(=O)c1ccc(CNC(=O)COC(=O)CC23CC4CC(CC(Br)(C4)C2)C3)cc1,inactive,
Cc1nnc2n1N=C(c1ccccc1)CS2,inactive,
Cc1ccc(S(=O)(=O)Nc2ccc(S(=O)(=O)Nc3nccs3)cc2)c([N+](=O)[O-])c1,"inconclusive [inhibitor, single point]",
Cc1ccc(CNC(=O)CN2C(=O)CSc3ccc(S(=O)(=O)N(C)C)cc32)cc1,inactive,
Cc1cccc(C(O)c2ncc(-c3ccccc3)[nH]2)c1C (stereo unspecified),inactive,
COCCN(Cc1cc2cc3c(cc2nc1Cl)OCO3)C(=O)Nc1ccc(F)cc1,active: 11.2 µM,
O=C1C=C(O)c2c(O)cc(O)c(O)c2C1=O,"inconclusive [inhibitor, single point]",
CCCCSc1nnc(-c2ccc(C)cc2)c2ccccc12,active: 18.4 µM,
CC(C)NS(=O)(=O)c1ccc(OCC(=O)N2CCN(c3ccccc3)CC2)cc1,"inconclusive [inhibitor, single point]",
CC(C)NC(=O)c1sc2nc3c(c(-c4cccs4)c2c1N)CN(C)CC3,"inconclusive [inhibitor, single point]",
CC(C(=O)N1CCN(c2ccc([N+](=O)[O-])cc2)CC1)N1C(=O)C2CC=CCC2C1=O (stereo unspecified),"inconclusive [inhibitor, single point]",
Cc1cc(OCC(=O)Nc2c(C(=O)c3ccccc3)oc3ccccc23)cc(C)c1Cl,inactive,
CCOc1ccc(N(CC(=O)Nc2ccccc2OC)S(=O)(=O)c2ccccc2)cc1,active: 1.16 µM,
COc1ccc(NC(=O)CSc2ccc3c(c2)OCCO3)cc1OC,"inconclusive [inhibitor, single point]",
